The whole screen tested about 310,000 compounds, of which about 14,000 (4.5%) showed an effect of 50% or more. The effect is printed as a negative number. The list shows a part of the results.
Each compound was assayed against human ether-à-go-go-related gene (hERG) potassium channel (human, UniProt Q12809) (assay: primary screen, population patch clamp on CHO cells stably expressing hERG).
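Also: peak tail current of the secondary pulse compared with the same well before compound.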

Sequence of human ether-à-go-go-related gene (hERG) potassium channel (Q12809 whole entry, looked up): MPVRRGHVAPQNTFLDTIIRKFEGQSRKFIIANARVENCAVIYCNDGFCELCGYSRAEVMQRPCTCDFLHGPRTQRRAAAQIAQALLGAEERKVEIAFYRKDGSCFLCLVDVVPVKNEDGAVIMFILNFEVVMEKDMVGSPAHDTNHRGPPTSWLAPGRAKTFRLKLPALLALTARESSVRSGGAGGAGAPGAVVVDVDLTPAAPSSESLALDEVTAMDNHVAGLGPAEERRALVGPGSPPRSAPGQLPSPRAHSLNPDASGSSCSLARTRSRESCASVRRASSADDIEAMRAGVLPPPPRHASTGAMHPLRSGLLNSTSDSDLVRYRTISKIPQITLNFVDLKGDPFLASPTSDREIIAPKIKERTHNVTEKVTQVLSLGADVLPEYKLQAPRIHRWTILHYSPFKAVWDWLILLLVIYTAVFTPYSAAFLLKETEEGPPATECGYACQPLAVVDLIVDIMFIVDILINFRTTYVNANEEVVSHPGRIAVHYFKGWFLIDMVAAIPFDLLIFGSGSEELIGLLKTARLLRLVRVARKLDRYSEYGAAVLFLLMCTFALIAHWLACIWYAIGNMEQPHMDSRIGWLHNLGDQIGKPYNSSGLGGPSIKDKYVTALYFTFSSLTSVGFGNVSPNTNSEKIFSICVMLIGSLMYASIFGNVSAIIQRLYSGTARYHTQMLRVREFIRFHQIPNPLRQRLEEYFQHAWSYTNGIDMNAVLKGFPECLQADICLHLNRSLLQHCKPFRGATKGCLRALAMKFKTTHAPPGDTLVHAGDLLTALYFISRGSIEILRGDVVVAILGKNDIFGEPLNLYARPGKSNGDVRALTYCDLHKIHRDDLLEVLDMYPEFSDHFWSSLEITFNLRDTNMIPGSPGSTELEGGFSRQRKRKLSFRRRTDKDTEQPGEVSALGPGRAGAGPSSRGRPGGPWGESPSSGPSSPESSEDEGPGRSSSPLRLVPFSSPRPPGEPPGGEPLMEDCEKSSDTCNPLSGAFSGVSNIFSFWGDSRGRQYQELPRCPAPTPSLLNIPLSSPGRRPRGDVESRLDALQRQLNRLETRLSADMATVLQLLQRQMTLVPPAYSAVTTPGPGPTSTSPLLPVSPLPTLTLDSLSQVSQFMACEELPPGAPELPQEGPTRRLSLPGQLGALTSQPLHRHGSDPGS

| Structure (SMILES) | hERG current change (%, negative = inhibition) at 10uM |
| --- | --- |
| Cc1ccc(CNC(=O)CCCn2c(=O)c3ccccc3n(CC(=O)NC3CCCC3)c2=O)cc1 | -17.7% |
| Cc1cc(Cl)ccc1NC(=S)NCCC(c1ccccc1)c1ccccc1 | 17% |
| CCN(CC)S(=O)(=O)c1ccc(NC(=O)C(C)N(c2ccc(OC)cc2)S(C)(=O)=O)cc1 (centres unmarked) | -6.05% |
| O=C(Nc1ccccc1C(=O)N1CCOCC1)C1CCC(=O)N1C1CCCC1 (centres unmarked) | 22.7% |
| COc1ccc(-c2cccc(NC(=O)c3ccco3)c2)nn1 | 1.69% |
| COCCNC(=O)c1ccccc1NC(=O)Cc1ccccc1 | -3.95% |
| O=C(Nc1ccc(-c2csc(Nc3ccccc3)n2)cc1)c1cccc(C(F)(F)F)c1 | 20.1% |
| O=S(=O)(c1ccccc1)N1CCN(c2nnc(-c3ccccc3)c3ccccc23)CC1 | -18.2% |
| CC(=O)N1c2ccccc2NC2=C(C(=O)CCC2)C1c1cccnc1 (centres unmarked) | 4.51% |
| O=C(NNC(=O)C1CCN(S(=O)(=O)c2ccc(Cl)cc2)CC1)c1ccc(Cl)cc1 | -7.12% |
| Cc1nc(-c2cccnc2)sc1C(=O)Nc1ccc(Cl)cc1 | -29.2% |
| CC/C(=C\C(=O)c1ccncc1)Nc1ccc(O)cc1 | -18.3% |
| Cc1cccc(CC(=O)NCC(=O)NCc2cc(=O)n(C)c(=O)n2C)c1 | 18.2% |
| Cc1ccc(S(=O)(=O)N2CCN(C)CC2)cc1C(=O)NC1CCCCC1 | -19.5% |
| Cc1cc(C)cc(NC(=O)CSc2nc3[nH]c(=O)cc(O)c3s2)c1 | 5.94% |
| CSc1ncc(C(=O)Nc2cccc(Cl)c2C)c(C)n1 | 3.95% |
| COC(=O)C1CCN(C(=O)COC(=O)CNC(=O)c2ccc(Cl)cc2Cl)CC1 | -30.4% |
| Cc1ccc(F)c(C2C3C=CCC(c4cccc(-c5ccc(N(C)C)cc5)c4)C3C(=O)N2Cc2ccccc2)c1 (centres unmarked) | 13.4% |
| CCC(=O)OCc1cc2cccc(C)c2[nH]c1=O | -1.03% |
| CC(NS(=O)(=O)c1ccc(Cl)c(Cl)c1)C(=O)OCC(=O)Nc1ccc2c(c1)OCO2 (centres unmarked) | -44.1% |
| COC(=O)c1ccc(COc2ccc(C(=O)c3ccccc3)cc2)o1 | 12.8% |
| CC1Cc2cc(S(=O)(=O)CCC(=O)NCc3ccco3)ccc2N1C(=O)C1CC1 (centres unmarked) | 12.5% |

| Structure (SMILES) | hERG current change (%, negative = inhibition) at 10uM |
| --- | --- |
| O=C(CCc1ccccc1)Nc1ccccc1[N+](=O)[O-] | 19% |
| COCCn1c(SCC(=O)Nc2ccccc2)nc2c1c(=O)[nH]c(=O)n2C | -29.2% |
| C=C(C)Cn1c(CCNC(=O)C(C)C)nc2ccccc21 | -2.45% |
| CCNC(=O)c1cc2c(=O)n3cccc(C)c3nc2n(Cc2ccc(C)cc2)c1=N | -88% |
| O=C(N/N=C/c1ccccc1)C(O)c1ccccc1 (centres unmarked) | 21% |
| CNc1ccccc1NC(=O)CCn1c(=S)oc2ccccc21 | 4.1% |
| Cc1ccc(NC(=O)C(c2ccccc2)N2CCN(CC(=O)NC3CC3)CC2)cc1 (centres unmarked) | -18.1% |
| COCCN(C(=S)Nc1cc(C)cc(C)c1)C(C)c1ccco1 (centres unmarked) | -6.7% |
| CC1CN(c2ncnc3c2oc2ccccc23)CC(C)O1.Cl (centres unmarked) | -2.64% |
| COc1ccc(N2CCN(c3ccc(N)cc3C#N)CC2)cc1 | 0.876% |
| Cc1cccnc1NC(=O)c1ccccc1-c1ccccc1C(=O)Nc1ncccc1C | -31.2% |
| O=C(c1ccccc1-c1nc(-c2ccccc2)no1)N1CCCC1 | -4.86% |
| O=C(Nc1cc(S(=O)(=O)N2CCOCC2)ccc1N1CCCC1)c1cc(=O)[nH]c2ccccc12 | 3.35% |
| O=S(=O)(NCc1cccnc1)c1ccc(Cl)cc1 | 2.27% |
| COc1ccccc1CN1CCN(C(=O)Cc2ccccc2)CC1 | -20.6% |
| O=[N+]([O-])c1ccc(O)c(CSc2nnnn2-c2ccccc2)c1 | 19.8% |
| Cc1ccc(NS(=O)(=O)N2CCOCC2)cc1 | 25% |
| COc1cccc(Nc2nc(C)cc(C)c2C#N)c1 | 9.6% |
| Cc1cccc(-n2c(SCC(=O)Nc3ccc4c(c3)OCO4)nnc2-c2ccoc2C)c1 | -0.162% |
| CCOc1cc(C2C(C(C)=O)=C(C)Nc3ncnn32)ccc1O (centres unmarked) | -0.225% |
| O=S1(=O)CCC(N=Cc2ccc(-c3ccc(Cl)cc3)o2)C1 (centres unmarked) | 2.43% |
| c1coc(-c2nc3c([nH]2)CCc2nonc2-3)c1 | 17.7% |

| Structure (SMILES) | hERG current change (%, negative = inhibition) at 10uM |
| --- | --- |
| CCc1cc2cccc(C)c2nc1SCC(=O)NNC(=O)c1ccco1 | -0.00372% |
| C=CCN=C1CC(C)(C)C(C(=O)OC)C(O)=C1C(=O)CCC (centres unmarked) | 11.5% |
| Cc1ccc(S(=O)(=O)N(Cc2ccc(C(F)(F)F)cc2)C(=O)N2CCN(C)CC2)cc1 | 14.6% |
| O=C(CNC(=O)C1CCCCC1)Nc1ccc(F)c(Cl)c1 | 6.31% |
| COc1ccc(C(=O)NCC(c2ccco2)N2CCc3ccccc32)c(OC)c1 (centres unmarked) | -15.2% |
| NC(=O)C1(NC(=O)[C@@H]2CC3(CC(c4cccc(NC(=O)[C@@H]5CCC(=O)N5)c4)=NO3)CN2C(=O)c2ccccc2)CC1 (some centres unmarked) | 1.96% |
| COC(=O)C(=Cc1ccccc1[N+](=O)[O-])C(=O)OC | 26.5% |
| CCCCc1nnc(NC(=O)C=C(C)C)s1 | 5.69% |
| CNCC(O)COc1cccc(OC)c1 (centres unmarked) | 23.7% |
| O=C(CCN1C(=O)COc2ccccc21)N1CCC2(CC1)OCCO2 | -12.5% |
| COc1cccc(-c2cccc(NC(=O)C3CCN(Cc4nccs4)CC3)c2)c1 | -37.1% |
| CCOC(=O)C(C(=O)NCc1ccc(C)cc1)c1ncc(C(F)(F)F)cc1Cl (centres unmarked) | -2.08% |
| Fc1ccccc1N1CC(c2ccccc2)C(c2cccs2)=N1 (centres unmarked) | 9.56% |
| Cl.O=S(=O)(NCC(c1ccco1)N1CCCCC1)c1cccc(C(F)(F)F)c1 (centres unmarked) | -57.7% |
| COc1ccccc1NS(=O)(=O)c1cccc(C(=O)N(C)Cc2cccs2)c1 | -27.9% |
| COc1ccc(NS(=O)(=O)c2ccc(Oc3ncccn3)cc2)cc1 | 3.85% |
| O=C(c1cc(-c2ccncc2)nc2ccc(Br)cc12)N1CCN(c2ccccn2)CC1 | -37.2% |
| Cc1cc(C)c(S(=O)(=O)NCc2cn3c(C)csc3n2)c(C)c1 | 6.58% |
| CCN1CCCC1CNS(=O)(=O)c1c(C)cc(C)cc1C.Cl (centres unmarked) | -25.9% |
| COc1cc(OC)c2ccc(=O)oc2c1C(CC(=O)N1CCN(c2ccccc2)CC1)c1ccc2c(c1)OCO2 (centres unmarked) | 2.82% |
| CCC(C)(C(=O)NC1CCCC1)N(Cc1ccco1)C(=O)Cc1cccs1 (centres unmarked) | 1.74% |
| COc1ccc(N2CCCn3c2nc2c3c(=O)n(Cc3ccccc3)c(=O)n2C)c(OC)c1 | -15.2% |

| Structure (SMILES) | hERG current change (%, negative = inhibition) at 10uM |
| --- | --- |
| Cc1ccccc1CN1CCC(Oc2ccc(C(=O)NCc3ccccn3)cc2)CC1 | -13.6% |
| O=C(CSc1ncn[nH]1)c1ccc2c(c1)OCO2 | -4.14% |
| Cc1ccnc(NC(=O)C2CCN(S(=O)(=O)c3cccc4nsnc34)CC2)c1 | -18.6% |
| Cc1ccc(S(=O)(=O)/N=C(\Sc2ccccc2)c2ccccc2)cc1 | 14.1% |
| Cn1cnc(S(=O)(=O)Nc2ccc(OC(F)F)cc2)c1 | 22.7% |
| COc1ccc(NC(=O)CS(=O)c2ccc(F)cc2)cc1 (centres unmarked) | 16.7% |
| O=C1C=C(N2CCCCC2)c2ccccc2C1=O | -9.48% |
| O=C(O)CSc1cc(NS(=O)(=O)c2ccc(Cl)cc2)c2ccccc2c1O | 9.2% |
| Cc1cccc(C)c1OCc1cc(C(=O)N(Cc2c(C)nn(C)c2C)C2CC2)no1 | -31.5% |
| Cc1ccccc1Cc1c(C)nc2nc(SCC(=O)NCCCN3CCCCC3)nn2c1C | -11.7% |
| Cc1ccc(OCCCC(=O)Nc2nccs2)cc1 | 13.4% |
| CCCc1cc(=O)oc2c3c(cc(OCC(=O)NCC4CCC(C(=O)O)CC4)c12)OC(C)(C)CC3 (centres unmarked) | 3.64% |
| Cc1ccc(N/C=C/C(=O)c2cccs2)cc1 | 15.1% |
| Cc1ccccc1C(=O)Nc1nnc(S(=O)(=O)N2CCCCCC2)s1 | 3.4% |
| O=[N+]([O-])c1cccc(/C=N/N2CCN(c3ccccn3)CC2)c1 | 4.41% |
| CCN1CCN(c2ccc(S(=O)(=O)N3CCOCC3)cc2NC(=O)CCSC)CC1 | -9.37% |
| CC(C)(C)N1C(=O)[C@H]2[C@@H](c3ccc(Br)cc3)N3C(=O)N(c4cccc(Br)c4)C(=O)[C@@]3(Cc3ccccc3)[C@H]2C1=O | 4.12% |
| COc1cc(OC)cc(C(=O)NNC(=S)Nc2ccccc2OC)c1 | 10.8% |
| COc1ccc(C2CC(c3ccc(F)cc3)n3nc(NC(=O)c4ccco4)nc3N2)cc1 (centres unmarked) | -60.3% |
| CCOC(=O)Cc1csc(NC(=O)CSc2cc(Cl)ccc2Cl)n1.O=C(O)C(=O)O | -1.74% |

Reference: article PMC4336329 (PLoS ONE, 2015)
